Assay results published in the supplement of paper PMC3724861.
Some of the results follow.

Tested on: T1, Caupolican (Caup) homeodomain DNA-binding domain
T1 sequence: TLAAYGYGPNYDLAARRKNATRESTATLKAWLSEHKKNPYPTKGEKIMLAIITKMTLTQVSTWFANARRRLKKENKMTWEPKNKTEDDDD
Experiment: PBM E-score (8-mer, recovered from the published 9-mer minima) (E-score (dimensionless, -0.5 to 0.5)); Drosophila protein; higher = stronger relative binding preference, active = 0.31 or more
How it was run: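 Caup's homeodomain DNA-binding domain (residues 214-303) was made by in vitro transcription and translation and applied at 100 nM to custom-designed protein binding microarrays. Each value is an enrichment score that gives relative binding preference for a short DNA word, with higher meaning stronger. The 8-mer values were recovered from published 9-mer scores, each of which was the minimum of its two constituent 8-mer scores. A cutoff of 0.31 marks candidate sites.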

Row | Sequence | PBM E-score
1 | CGGATTAG | inactive: 0.0107
2 | ATCGGACA | inactive: 0.199
3 | ACCCCAAG | inactive: -0.166
4 | CGGAAGCA | inactive: -0.0328
5 | ATTGGCGG | inactive: -0.141
6 | CCCGGTGC | inactive: -0.303
7 | CCCTATAC | inactive: -0.1
8 | CGTGAATA | inactive: 0.133
9 | GACCTTAC | inactive: -0.0414
10 | CATATATC | inactive: 0.14
11 | AAGTACCC | inactive: -0.0126
12 | CCAACAGC | inactive: -0.0623
13 | GAGGCGGA | inactive: -0.268
14 | ATCTGGCG | inactive: -0.0594
15 | CCTGTTAG | inactive: 0.114
16 | ACTCGTAA | inactive: 0.117
17 | TGGTGACA | inactive: 0.266
18 | CCAGACAG | inactive: -0.00369
19 | AGGTGTAA | inactive: 0.2
20 | ATCTCTGG | inactive: -0.00282
21 | CGCTGGTC | inactive: -0.179
22 | GATCCTAC | inactive: -0.00525
23 | CAAAGTGC | inactive: -0.0432
24 | CGCCACAA | inactive: -0.05
25 | ACTCCCCT | inactive: -0.187

Row | Sequence | PBM E-score
26 | CATAGTAA | inactive: 0.228
27 | CCTTTGAA | inactive: -0.0192
28 | ACGGGGGC | inactive: -0.283
29 | CGTGATTC | inactive: 0.0106
30 | TCGCCACA | ≥ -0.0334
31 | AAGGTACT | inactive: 0.117
32 | ACTATCAC | inactive: 0.0593
33 | GGGGCCGA | inactive: -0.314
34 | TAGATCCA | inactive: 0.0205
35 | CTGTGGCA | inactive: -0.0298
36 | GGACCGAC | inactive: -0.123
37 | CACAGTGG | inactive: -0.0244
38 | CAGAATTC | inactive: 0.0181
39 | CCCGATCA | inactive: -0.123
40 | AACCCACA | ≥ 0.0436
41 | AAGAAGAC | inactive: 0.108
42 | AACATGGA | active: 0.325
43 | GACCTGGC | inactive: -0.199
44 | GATGTGCC | inactive: -0.0456
45 | GGGATAGA | inactive: -0.0332
46 | CCGATAGC | inactive: -0.121
47 | AGGAGTAT | inactive: 0.00187
48 | CGGCCCTC | inactive: -0.331
49 | GGGATCAC | inactive: -0.108
50 | AGTAACGG | inactive: 0.0157

Row | Sequence | PBM E-score
51 | CCCGACGC | inactive: -0.195
52 | ATCTTCTG | inactive: -0.0212
53 | CGCAGACC | inactive: -0.224
54 | AGATAGCC | inactive: -0.118
55 | GCTAGCAC | inactive: -0.0674
56 | TACCCATA | inactive: 0.0137
57 | ACAATCGG | inactive: 0.151
58 | GCATTGAC | inactive: 0.0357
59 | CACAGGAA | inactive: 0.106
60 | CATCCATA | inactive: 0.117
61 | CCTCCGCA | inactive: -0.12
62 | GGGTGTGA | inactive: -0.0838
63 | GAGCTTCC | inactive: -0.101
64 | AATCTCAA | inactive: 0.0115
65 | ACTTAGCA | inactive: 0.00821
66 | CCACCTCA | inactive: -0.0372
67 | GGTGTTAC | inactive: 0.247
68 | AACACGAC | active: 0.321
69 | GCACTCGC | inactive: -0.139
70 | AAGTGACA | inactive: 0.241
71 | GCAGCGGA | inactive: -0.122
72 | ATGCTGGA | inactive: 0.0168
73 | AGACAAAA | inactive: 0.0648
74 | CACCGCAA | inactive: -0.0367
75 | GCTCCTCC | inactive: -0.252

Row | Sequence | PBM E-score
76 | CAGCCTCA | inactive: -0.145
77 | ACTTTTTC | inactive: -0.00476
78 | AAAATAGC | inactive: -0.0429
79 | AGCAAACT | inactive: 0.0814
80 | ACGGACAA | inactive: 0.248
81 | AGTAACTG | inactive: 0.138
82 | CGATCGCG | inactive: -0.0834
83 | CGTGTTGC | inactive: 0.11
84 | GAGGCACC | inactive: -0.288
85 | CCGCTACG | inactive: -0.273
86 | CGGTTCTC | inactive: -0.0678
87 | TAATGACA | active: 0.331
88 | ACATCCGA | inactive: 0.162
89 | ACACAATG | inactive: 0.273
90 | AAGACGCG | inactive: -0.096
91 | CAAGGGGC | inactive: -0.105
92 | CTGGGCAA | inactive: -0.111
93 | CAATTTAA | inactive: 0.149
94 | ACTGGTAG | inactive: 0.124
95 | CACTTATC | inactive: 0.118
96 | CCACGTCC | inactive: -0.111
97 | ATATTCAC | inactive: 0.0912
98 | GGCGTACA | inactive: 0.171
99 | ACGACTTC | inactive: 0.0231
100 | ACTGCATG | inactive: 0.129

Row | Sequence | PBM E-score
101 | TCAGTTAA | inactive: 0.0667
102 | TGGAGACA | inactive: 0.073
103 | GTCGGACA | inactive: 0.177
104 | CACACATC | inactive: 0.064
105 | CAAGCAAA | inactive: 0.13
106 | CCATCTGA | inactive: 0.0541
107 | TAAGCTTA | inactive: 0.0694
108 | TTCAAAAA | inactive: 0.0144
109 | CCAGTGTA | inactive: 0.115
110 | GCTTTAGA | inactive: -0.0862
111 | AATAGCCT | inactive: -0.0311
112 | ACAGCATG | inactive: 0.241
113 | GGCTGTTA | inactive: 0.0722
114 | GTAGAACA | inactive: 0.149
115 | GGCGACCA | inactive: -0.135
116 | CACACAAG | inactive: 0.152
117 | GCTTTCTA | inactive: 0.00474
118 | CGTCGTTA | inactive: -0.0604
119 | AACTAATT | inactive: 0.166
120 | CGGGACAC | inactive: 0.0745
121 | CAATGTTA | inactive: 0.269
122 | TATACATA | active: 0.326
123 | CGAAGCAC | inactive: -0.0222
124 | ACAGCACT | inactive: 0.0954
125 | ACCTCGCC | inactive: -0.212

Row | Sequence | PBM E-score
126 | AAAACTGG | inactive: -0.0691
127 | AATTCCCG | inactive: 0.0125
128 | AATGATGG | inactive: 0.0447
129 | CAGAACTC | inactive: -0.0352
130 | AGGGACTA | ≥ -0.0163
131 | ATGGTGAC | inactive: 0.116
132 | ACATACAC | active: 0.352
133 | AGGTATCC | inactive: 0.0495
134 | GATAACAC | inactive: 0.25
135 | CAAGAATG | inactive: 0.00113
136 | ATCAGGGC | inactive: -0.0924
137 | CGTGAAAA | inactive: 0.0737
138 | CCCGGAGA | inactive: -0.134
139 | GCTGACGA | inactive: 0.0114
140 | GCGTGCGA | inactive: -0.153
141 | GTGCTGCA | inactive: 0.00845
142 | GGAGGAAA | inactive: -0.127
143 | CGATAGGC | inactive: -0.0798
144 | CTTCATCA | inactive: 0.0127
145 | ACTGGGGG | inactive: -0.327
146 | ATAAAGCC | inactive: -0.137
147 | GTTCGAGA | inactive: 0.0999
148 | AATTGCGG | inactive: -0.0675
149 | CACAAGGA | inactive: 0.109
150 | CTATTCTA | inactive: 0.0511

Row | Sequence | PBM E-score
151 | GCCGTCAC | inactive: -0.11
152 | AGAATATG | inactive: 0.186
153 | GCGACGCC | inactive: -0.209
154 | CGGGTGAC | inactive: -0.151
155 | CAGTAGAA | inactive: -0.072
156 | AACTTCCT | inactive: 0.0238
157 | CTGAGCAG | inactive: -0.0117
158 | CTTACAAC | active: 0.333
159 | GATCCAAC | inactive: 0.0067
160 | CGTTTACC | inactive: -0.0749
161 | GTAGTAAC | inactive: 0.196
162 | CCCTATAG | inactive: -0.0581
163 | AACGCCGC | inactive: -0.16
164 | AAACTCCT | inactive: -0.0174
165 | AATATAGA | inactive: 0.138
166 | CCGCAAGA | inactive: -0.207
167 | AGATCATA | inactive: 0.138
168 | ACAGAAAA | inactive: 0.0795
169 | GACCTTGC | inactive: -0.12
170 | GCATAGCA | inactive: 0.074
171 | AAGTTTAT | inactive: 0.163
172 | AGGTGCAC | inactive: -0.0575
173 | GTATCCCA | inactive: 0.0287
174 | GGGGTCTA | inactive: -0.125
175 | CACCCATG | inactive: -0.0467

Row | Sequence | PBM E-score
176 | CACTACTA | inactive: 0.0827
177 | ATTCGCAA | inactive: 0.0683
178 | CATTTAAG | inactive: 0.0622
179 | CGTAGCTC | inactive: 0.0259
180 | AAGAAGGC | inactive: -0.138
181 | CGAATGAC | inactive: 0.167
182 | GTAAAGAA | inactive: 0.089
183 | CATTATAG | inactive: 0.0171
184 | GCAGTTAC | inactive: 0.126
185 | ACCGTTAC | inactive: 0.106
186 | GGGAATTA | inactive: 0.0659
187 | GACGCCTC | inactive: -0.111
188 | CACTCTAA | inactive: 0.0144
189 | ATACGAAT | ≥ 0.176
190 | CCCACGCC | inactive: -0.286
191 | ATCTCTCG | inactive: 0.0246
192 | GTTACAGA | inactive: 0.172
193 | CCTCATCA | inactive: 0.0567
194 | TCGATTCA | inactive: 0.107
195 | GACGGCAA | inactive: -0.0543
196 | CGCAAGCC | inactive: -0.115
197 | ACTTTCCT | inactive: -0.143
198 | ATGACTTC | inactive: 0.126
199 | TATGCGCA | inactive: -0.0233
200 | AAGGTAAG | inactive: 0.00616

Row | Sequence | PBM E-score
201 | ACGCCTGA | ≥ 0.00152
202 | GTGACTTA | inactive: 0.104
203 | CATTTGGC | inactive: -0.102
204 | GGCAGGGA | inactive: -0.0883
205 | CAATCGCG | inactive: -0.0683
206 | ACGCGACC | inactive: -0.119
207 | AGTAAGGA | inactive: 0.0816
208 | TAACCCAA | inactive: 0.0279
209 | CGTCGAGC | inactive: -0.0905
210 | TCATGGCA | inactive: -0.0694
211 | GGCATACC | inactive: -0.123
212 | ATATGAGC | inactive: 0.0536
213 | CAATAAGC | inactive: -0.0471
214 | AGTAGTAC | inactive: 0.29
215 | CCTGCGTA | inactive: -0.0458
216 | AACTGTTA | inactive: 0.133
217 | AACCGAGT | inactive: -0.0739
218 | CAAAGCTG | inactive: -0.0401
219 | AAGGTTAT | inactive: -0.0128
220 | GAGTGGCC | inactive: -0.132
221 | AATGGTTC | inactive: 0.114
222 | ACACGTCG | inactive: 0.212
223 | GGCAAAGA | inactive: -0.0555
